Laboratory results as given in PubChem BioAssay AID588342 (National Center for Advancing Translational Sciences (NCATS), 2011).
The campaign covered roughly 360,000 compounds. About 25,000 (6.9%) were called active. This list was built around the results that the source calls inconclusive (neither active nor inactive); the mix of calls is not that of the screen. Calls follow the shape of the dose curve; as a rule, active = well fitted inhibition curve with a large enough effect; inconclusive = small, poorly fitted or top-dose-only effect; inactive = flat fitted curve, though single readings scatter. A potency beside an inconclusive call is a rough fit, not a confirmed value.

target: Luciferin 4-monooxygenase (Photinus pyralis) (UniProt P08659); test: qHTS profiling assay for firefly luciferase inhibitor/activator using purifed enzyme and Km concentrations of substrates (counterscreen for miR-21 project); conditions: purified FLuc, luminescence inhibition; series mostly up to 57.5 µM; also: nearly all actives have a fitted effect of over 55% in size
Outline: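 Purified P. pyralis luciferase, 10 nM final, with Km-level 10 uM D-luciferin and 10 uM ATP in 50 mM Tris acetate pH 7.5, 10 mM Mg acetate, 0.01% Tween-20, 0.05% BSA; 6-point qHTS titration about 60 µM downward; luminescence read.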
Potency is read from the fitted curve at half-maximal effect; tags tell the direction and shape of the fitted curve.

UniProt P08659, sequence (P08659 whole entry, looked up): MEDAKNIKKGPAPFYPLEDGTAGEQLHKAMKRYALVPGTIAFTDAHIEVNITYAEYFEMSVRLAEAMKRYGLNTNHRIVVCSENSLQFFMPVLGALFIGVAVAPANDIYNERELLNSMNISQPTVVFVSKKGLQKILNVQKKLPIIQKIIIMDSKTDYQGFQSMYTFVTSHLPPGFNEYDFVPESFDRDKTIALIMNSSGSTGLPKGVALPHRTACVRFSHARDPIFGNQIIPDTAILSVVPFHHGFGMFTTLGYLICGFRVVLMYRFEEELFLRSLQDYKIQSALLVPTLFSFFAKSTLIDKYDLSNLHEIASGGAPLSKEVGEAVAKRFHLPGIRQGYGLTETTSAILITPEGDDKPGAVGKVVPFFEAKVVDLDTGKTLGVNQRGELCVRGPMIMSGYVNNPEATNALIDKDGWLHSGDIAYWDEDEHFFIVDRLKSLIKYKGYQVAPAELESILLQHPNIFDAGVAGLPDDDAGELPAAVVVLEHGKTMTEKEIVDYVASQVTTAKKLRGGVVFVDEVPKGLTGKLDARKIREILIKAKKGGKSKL

Q: How did the Potency turn out when `O=C(CSc1nnc(-c2ccncc2)n1Cc1ccco1)OC1CCCCC1` was run?
A: inactive

Q: `O=C(CCN1C(=O)/C(=C/c2ccccc2Cl)SC1=S)Nc1cccnc1` was tested. Which Potency did it give?
A: inconclusive: 26.9 µM [inhibitor, partial curve]

Q: Which Potency does the source give for `COc1ccc(NC(=O)CSc2nnc(NC(=O)c3ccccc3C(=O)O)s2)cc1` here?
A: active: 26.9 µM

Q: Which Potency does the source give for `FC(F)(F)c1ccc2c(c1)[nH]c(=S)n2C1CC1` here?
A: inactive

Q: Which Potency does the source give for `O=S(=O)(Nc1cc(F)ccc1F)c1ccc2[nH]c3c(c2c1)CCCCC3` here?
A: inconclusive: 26.9 µM [inhibitor, partial curve, poor fit]

Q: Which Potency does the source give for `COc1ccc(CCCc2nc3ccccc3[nH]2)cc1` here?
A: inconclusive: 16.9 µM [inhibitor, partial curve]

Q: Which Potency does the source give for `CC(C)(C)c1ccc(Oc2ccc(NC(=O)CCC(=O)OCC(=O)c3ccccc3)cc2)cc1` here?
A: inconclusive: 37.9 µM [inhibitor, partial curve, poor fit]

Q: How did the Potency turn out when `O=C(Cc1cccs1)Nc1ccccc1-c1nc2ccccc2[nH]1` was run?
A: inactive

Q: With `NCCN1C(=O)S/C(=C\c2ccc3c(c2)OCO3)C1=O` as the molecule, how does the Potency read?
A: inconclusive: 37.9 µM [inhibitor, partial curve, poor fit]

Q: For `Cc1sc2nc(CSC(C)C(=O)N3CCOCC3)[nH]c(=O)c2c1C` (stereo not drawn), which Potency is on record?
A: inactive

Q: `O=C(NCC1CCCO1)c1sc(=S)n2c1[nH]c(=O)c1ccc(C(=O)N3CCCCC3)cc12` (stereo not drawn) was tested. Which Potency did it give?
A: active: 21.3 µM

Q: Which Potency does the source give for `COc1ccc(S(=O)(=O)N2CCCCC2)cc1NC(=O)Cn1cnc2ccccc2c1=O` here?
A: inactive

Q: With `O=C(O)c1ccc(-c2ccc(-c3ccccc3)cc2)s1` as the molecule, how does the Potency read?
A: active: 0.0757 µM

Q: How did the Potency turn out when `Cc1cc(C)n2nc(/C(C#N)=C/c3ccccn3)c(C#N)c2n1` was run?
A: inactive

Q: For `O=C(NCc1cccnc1)c1ccc(COc2ccccc2Br)o1`, which Potency is on record?
A: inconclusive: 16.9 µM [inhibitor, partial curve]

Q: For `O=C(CSc1cn[nH]n1)Nc1ccc(Cl)cc1Cl`, which Potency is on record?
A: inactive

Q: Which Potency does the source give for `CCOc1ccc2nc(SC3CC(=O)N(c4ccc(C)cc4)C3=O)sc2c1` (stereo not drawn) here?
A: inactive

Q: `CCC1(C)Cc2nc3sc(C(=O)O)c(N)c3cc2CO1` (stereo not drawn) was tested. Which Potency did it give?
A: inconclusive: 21.3 µM [inhibitor, partial curve, poor fit]

Q: For `CSc1ccc(C(=S)N2CCCCCC2)cc1`, which Potency is on record?
A: inconclusive: 30.1 µM [inhibitor, partial curve, poor fit]

Q: Which Potency does the source give for `CC(C)c1ccc(NS(=O)(=O)c2ccc3[nH]cc(C(=O)NCC4CCCO4)c(=O)c3c2)cc1` (stereo not drawn) here?
A: inconclusive: 10.7 µM [inhibitor, partial curve]

Q: `COc1ccc(OCc2nc3ccccc3[nH]2)cc1` was tested. Which Potency did it give?
A: active: 3.38 µM

Q: How did the Potency turn out when `CCOc1ccc2nc(N3CCCC(C(=O)Nc4ccc(OC)c(Cl)c4)C3)sc2c1` (stereo not drawn) was run?
A: active: 3.01 µM

Q: With `CN(C)C(=O)c1ccc(N/C=C(\C=O)c2nc3ccccc3o2)cc1` as the molecule, how does the Potency read?
A: inactive

Q: Which Potency does the source give for `CCOc1cc(/C=C2/C(=O)NN(c3cccc(Cl)c3)C2=O)ccc1O` here?
A: active: 23.9 µM

Q: Which Potency does the source give for `Cc1nc(NC(=O)c2ccc(Br)s2)sc1C(=O)N(C)C` here?
A: active: 7.57 µM

Q: For `C=CCNC(=S)N/N=C/c1cn(-c2ccccc2)nc1-c1ccc(OC)cc1`, which Potency is on record?
A: inconclusive: 12 µM [inhibitor, partial curve]

Q: For `Nc1ccc(-c2cn3cccnc3n2)cc1`, which Potency is on record?
A: inconclusive: 26.9 µM [inhibitor, partial curve, poor fit]

Q: For `Cc1nnc(-c2cnn(C)c2N)n1Cc1cccc(Cl)c1`, which Potency is on record?
A: inactive

Q: For `O=C(Nc1cccnc1)c1cc(-c2ccc(F)cc2)on1`, which Potency is on record?
A: active: 2.39 µM

Q: Which Potency does the source give for `COc1ccc(/C=N/Nc2cc(N3CCOCC3)nc(C)n2)c(OC)c1` here?
A: inconclusive: 26.9 µM [inhibitor, single point]

Q: How did the Potency turn out when `CC(Sc1nc2ccc(C(=O)c3ccccc3)cc2[nH]1)C(=O)O` (stereo not drawn) was run?
A: inconclusive: 19 µM [inhibitor, partial curve]

Q: `Cc1csc2c(=O)n(CCO)c(=O)[nH]c12` was tested. Which Potency did it give?
A: inactive

Q: `Cc1nc2cc(C(=O)NC3CCCCCC3)ccc2n1-c1ccc(Br)cc1` was tested. Which Potency did it give?
A: inconclusive: 23.9 µM [inhibitor, partial curve, poor fit]

Q: For `COc1ccc(-c2cc(C(=O)N3CCCCC3)c3ccccc3n2)cc1OC`, which Potency is on record?
A: inconclusive: 26.9 µM [inhibitor, single point]

Q: For `Cc1nc2ccccc2c(=O)n1/N=C/c1ccc(N(C)C)cc1`, which Potency is on record?
A: inconclusive: 15.1 µM [inhibitor, partial curve, poor fit]

Q: `Cc1nn(-c2ccccc2)c(Cl)c1/C=N/Nc1nc2ccccc2[nH]1` was tested. Which Potency did it give?
A: active: 0.478 µM

Q: With `Cc1ccc2nc(Cc3ccc(N)cc3)oc2c1` as the molecule, how does the Potency read?
A: active: 13.5 µM

Q: `CC(C)(CO)NCc1c(OCc2ccc(Cl)cc2)ccc2ccccc12` was tested. Which Potency did it give?
A: inconclusive: 33.8 µM [inhibitor, partial curve, poor fit]

Q: How did the Potency turn out when `CC(=O)c1cccc(NC(=O)CN(c2ccccc2)S(C)(=O)=O)c1` was run?
A: inactive

Q: `O=C1NC(c2ccco2)Nc2sc3c(c21)CCN(Cc1ccccc1)C3` (stereo not drawn) was tested. Which Potency did it give?
A: inconclusive: 19 µM [inhibitor, partial curve]

Q: How did the Potency turn out when `COc1ccc(C)cc1NC(=O)COC(=O)Cc1ccc(-c2ccccc2)cc1` was run?
A: inconclusive: 19 µM [inhibitor, partial curve]

Q: With `COc1ccc(Cl)cc1CN1C(=O)NC2(CCCCCC2)C1=O` as the molecule, how does the Potency read?
A: inconclusive: 21.3 µM [inhibitor, partial curve, poor fit]

Q: `O=C(COc1ccc(Cl)cc1Cl)N1CCN(c2ccccn2)CC1` was tested. Which Potency did it give?
A: inconclusive: 37.9 µM [inhibitor, partial curve, poor fit]

Q: How did the Potency turn out when `COc1ccc(NC(=O)Nc2nccs2)cc1` was run?
A: active: 6.75 µM

Q: `Cc1ccc(NC(=O)C(C)SCc2ccccc2)cc1` (stereo not drawn) was tested. Which Potency did it give?
A: inconclusive: 19 µM [inhibitor, partial curve, poor fit]

Q: With `CC(C)Oc1ncnc2c1[nH]c1ccccc12` as the molecule, how does the Potency read?
A: active: 15.1 µM

Q: With `COc1ccc2nc(NC(=O)[C@@H]3CCCN3C(=O)c3cccs3)sc2c1` as the molecule, how does the Potency read?
A: inconclusive: 21.3 µM [inhibitor, partial curve]

Q: How did the Potency turn out when `Cc1cc(NC(=O)CSc2nc3c(cc2C#N)CCC3)no1` was run?
A: inconclusive: 23.9 µM [inhibitor, partial curve]

Q: `Cc1cc(NC(=O)CSc2cn(CCNC(=O)c3ccccc3)c3ccccc23)no1` was tested. Which Potency did it give?
A: active: 19 µM

Q: With `Cc1nc(NC(=O)c2c(-c3ccccc3)c(-c3ccccc3)nn(C)c2=O)sc1C` as the molecule, how does the Potency read?
A: inconclusive: 13.5 µM [inhibitor, partial curve, poor fit]

Q: `O=C(CSc1nnc(NC(=O)c2c(F)cccc2Cl)s1)Nc1ccccc1F` was tested. Which Potency did it give?
A: inconclusive: 30.1 µM [inhibitor, partial curve, poor fit]

Q: For `N#CCc1ccc(NC(=O)Nc2cccc(Cl)c2)cc1`, which Potency is on record?
A: active: 16.9 µM

Q: With `O=C(CSc1ccc(-c2ccc(Br)cc2)nn1)NCC1CCCO1` (stereo not drawn) as the molecule, how does the Potency read?
A: active: 15.1 µM

Q: With `C1=C(N2CCOCC2)/C(=C/c2nc3ccccc3[nH]2)CC1` as the molecule, how does the Potency read?
A: inconclusive: 26.9 µM [inhibitor, single point]

Q: `CCc1nnc(NC(=O)c2sc3nc4c(cc3c2N)CCCCCC4)s1` was tested. Which Potency did it give?
A: active: 4.78 µM

Q: For `Cc1ccc(NC(=S)NNc2ccc([N+](=O)[O-])cc2S(=O)(=O)Nc2ccccc2C(=O)O)cc1C`, which Potency is on record?
A: inconclusive: 21.3 µM [inhibitor, single point]

Q: `Cc1nc(SCC(=O)N2CCc3ccccc32)n[nH]1` was tested. Which Potency did it give?
A: inconclusive: 23.9 µM [inhibitor, partial curve, poor fit]

Q: How did the Potency turn out when `CCN1CCN(C(c2ccc(SC)cc2)c2c(O)cc(C)n(Cc3ccco3)c2=O)CC1` (stereo not drawn) was run?
A: inconclusive: 26.9 µM [inhibitor, single point]

Q: `CCOc1ccc(-n2cnc3sc4c(c3c2=O)CCCC4)cc1` was tested. Which Potency did it give?
A: inconclusive: 37.9 µM [inhibitor, single point]

Q: For `Cc1cccc(Nc2nnc(SCC(=O)N(C)C3CCS(=O)(=O)C3)s2)c1C` (stereo not drawn), which Potency is on record?
A: inconclusive: 26.9 µM [inhibitor, single point]

Q: `O=C(NC(=S)NC1CCCCC1)c1ccc(F)cc1` was tested. Which Potency did it give?
A: inconclusive: 15.1 µM [inhibitor, partial curve]

Q: How did the Potency turn out when `Cc1cc(C)c(NC(=O)CCn2c(=O)c3cccn3c3ccccc32)c(C)c1` was run?
A: inconclusive: 8.49 µM [inhibitor, partial curve, poor fit]

Q: `O=C(COC(=O)C(Cc1c[nH]c2ccccc12)NC(=O)c1ccc(Cl)cc1)c1ccc(Cl)cc1` (stereo not drawn) was tested. Which Potency did it give?
A: inconclusive: 15.1 µM [inhibitor, partial curve, poor fit]

Q: For `CC(C)CN1CCN(Cc2ccc3ncccc3c2)CC1CCO` (stereo not drawn), which Potency is on record?
A: inactive

Q: `CC(=O)Nc1ccc(N=NN2CCOCC2)cc1` was tested. Which Potency did it give?
A: inconclusive: 37.9 µM [inhibitor, partial curve, poor fit]

Q: With `Cc1cccc(NC(=S)/N=C(\N)Nc2nc(C)c3cc(C)ccc3n2)c1` as the molecule, how does the Potency read?
A: inconclusive: 19 µM [inhibitor, partial curve, poor fit]

Q: `Cc1cc(N2CCN(C)CC2)n2nc(-c3ccc(Cl)cc3)nc2n1` was tested. Which Potency did it give?
A: inactive

Q: `CCCS(=O)(=O)N1CCCC(C(=O)Oc2ccc(C)c(C)c2)C1` (stereo not drawn) was tested. Which Potency did it give?
A: inactive

Q: With `CC(=O)c1ccc(NC(=O)Nc2ccc3c(c2)nc(C)n3C)cc1` as the molecule, how does the Potency read?
A: active: 19 µM

Q: How did the Potency turn out when `COc1ccc(/C=N/NC(=O)C2(C)NC(C)(C)Cc3ccccc32)cc1` (stereo not drawn) was run?
A: inactive

Q: How did the Potency turn out when `Cc1ccccc1C1=CCN(c2ncc(NC(=O)c3ccc(Cl)cc3)cc2C(=O)O)CC1` was run?
A: inconclusive: 12 µM [inhibitor, partial curve, poor fit]

Q: With `COc1ccccc1NC(=S)Nc1ccccn1` as the molecule, how does the Potency read?
A: inconclusive: 37.9 µM [inhibitor, partial curve, poor fit]

Q: Which Potency does the source give for `COC(=O)c1ccc(COc2ccc(C=O)cc2OC)o1` here?
A: inconclusive: 23.9 µM [inhibitor, single point]
